The text below walks through data of the supplement of paper PMC9446081.

Out of some 39,000 compounds screened, about 220 (0.56%) showed activity. The list shows a part of the results.
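Note: static incubation at 37 °C against the wild-type strain, values averaged over two biological replicates.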

The subject of this experiment is Escherichia coli K-12 BW25113. Put plainly: relative growth (OD600 normalised to plate interquartile mean) (fraction); higher = less growth inhibition, active = 0.2 or less. The settings on record: 50 µM; LB; incubation time: overnight (16-24 h).
Consider `CSc1n[nH]c(=O)c2cc(C)nn12`, for which the relative growth is inactive: 0.992.
For `CC(C)(C)OC(=O)NC(=NCCn1cc(-c2cccc(/C=C/C(=O)NO)c2)nn1)NC(=O)OC(C)(C)C` the value was inactive: 1.04; for `C[C@@H]1CN([C@H](C)CO)C(=O)c2cc(NC(=O)Nc3ccc(C(F)(F)F)cc3)ccc2O[C@@H](C)CCCCO[C@H]1CN(C)S(=O)(=O)c1ccccc1`, inactive: 1.04.
For `C[C@H]1CN([C@@H](C)CO)C(=O)c2cccc(NC(=O)c3cnccn3)c2O[C@@H]1CN(C)Cc1ccncc1` the value was inactive: 0.997; for `NC(=O)CSc1nnnn1-c1ccccc1`, inactive: 1.02; for `C[C@@H]1CCCCO[C@H](CN(C)C(=O)C2CCCCC2)[C@@H](C)CN([C@@H](C)CO)C(=O)c2cc(NC(=O)Nc3cccc4ccccc34)ccc2O1`, inactive: 0.986.
For `COc1ccc(S(=O)(=O)N(C)C[C@@H]2OCCCC[C@@H](C)Oc3ccc(NC(=O)CCC(F)(F)F)cc3C(=O)N([C@@H](C)CO)C[C@@H]2C)cc1` the value was inactive: 1.03.
Regarding `COCC#Cc1ccc2c(c1)O[C@@H](CN(C)C(=O)COC)[C@H](C)CN([C@H](C)CO)S2(=O)=O`, the relative growth was inactive: 0.99.
For `CC(C)NC(=O)N(C)C[C@@H]1Oc2ccc(NS(=O)(=O)c3ccc(F)cc3)cc2C(=O)N([C@H](C)CO)C[C@@H]1C` the value was inactive: 0.982.
For `CN(C)CC(=O)N[C@@H]1CC[C@H](CC(=O)NCCN2CCCCC2)O[C@@H]1CO` the value was inactive: 0.991; for `CN(C)C(=O)C[C@@H]1C=C[C@@H](NC(=O)C2CC2)[C@@H](CO)O1`, inactive: 0.99.
Then `COCC(=O)N1C[C@H](C)[C@@H](OC)CN(C)C(=O)c2cc(NC(=O)c3cc(C)on3)ccc2OC[C@@H]1C`, with inactive: 0.987; and `COc1ccc(N2C(=O)C[C@@H](N3CCCN([C@H]4CC(=O)N(c5ccc(OC)cc5)C4=O)CC3)C2=O)cc1`, with inactive: 1.01; and `COc1c(C)c2c(c(O)c1CC=C(C)CCC(=O)O)C(=O)OC2`, with inactive: 1.12.
As to `Cc1ccc(S(=O)(=O)N(C)C[C@H]2Oc3c(NC(=O)C4CC4)cccc3C(=O)N([C@@H](C)CO)C[C@H]2C)cc1`, the relative growth is inactive: 0.995.
As to `C[C@H](CO)N1C[C@H](C)[C@H](CN(C)C(=O)Nc2ccc(N3CCCCC3)cc2)OCc2cnnn2CCCC1=O`, the relative growth was inactive: 1.02.
Then `Cc1noc(C)c1S(=O)(=O)N(C)C[C@@H]1OCCCC[C@@H](C)Oc2ccc(NC(=O)Nc3cccc4ccccc34)cc2C(=O)N([C@H](C)CO)C[C@H]1C`, with inactive: 1.05; and `C[C@H](CO)N1C[C@H](C)[C@@H](CN(C)S(=O)(=O)c2cn(C)cn2)Oc2c(NS(=O)(=O)c3cccs3)cccc2C1=O`, with inactive: 0.992; and `CC(C)Oc1cccc(-n2c(CCc3c[nH]c4ccc(Br)cc34)nc3ccccc3c2=O)c1`, with inactive: 1.03.
Then `O=C(N[C@@H]1CC[C@H](CCNS(=O)(=O)c2ccccc2)O[C@@H]1CO)c1cnccn1`, with inactive: 0.983; and `COc1ccc2c3c(n(c2c1)C)[C@@H](CO)N(C[C@]13CN(C1)C(=O)c1ccncc1)C(=O)C1CCOCC1`, with inactive: 0.956.
For `C[C@@H]1CCCCO[C@@H](CN(C)C(=O)Nc2ccc(F)cc2)[C@@H](C)CN([C@H](C)CO)C(=O)c2cc(NC(=O)c3ccccc3)ccc2O1` the value was inactive: 1.01; for `CN1C(=O)c2cc(NC(=O)Cc3cccs3)ccc2OC[C@H]2O[C@H](CC(=O)NCCCN3CCOCC3)CC[C@H]21`, inactive: 0.98.
Turning to `O=C(C[C@@H]1C[C@H]2c3cc(NC(=O)Nc4ccc(C(F)(F)F)cc4)ccc3O[C@H]2[C@@H](CO)O1)NC1CCCCC1`, the relative growth is inactive: 1.01.
For `O=C(CCCCCNC(=O)OCc1ccc(CO[C@H]2C[C@@H](C3CCCCC3)C=C(C(=O)N3CCN(Cc4ccc5c(c4)OCO5)CC3)O2)cc1)NO` the value was inactive: 0.936.
For `Clc1ccc(COC(Cn2ccnc2)c2ccc(Cl)cc2Cl)c(Cl)c1.O=[N+]([O-])O` (stereo unspecified) the value was inactive: 0.98; for `N[C@H]1CC[C@H]2CN(Cc3ccc(Cl)c([N+](=O)[O-])c3)C[C@H]21`, inactive: 0.972; for `O=C(CCCCCNc1nc(=S)[nH]c2ccccc12)N1CCC(O)(c2cccc(C(F)(F)F)c2)CC1`, inactive: 0.913.
For `C[C@@H]1CN([C@@H](C)CO)C(=O)c2cccc(NC(=O)Nc3ccc4c(c3)OCO4)c2O[C@@H]1CN(C)S(C)(=O)=O` the value was inactive: 0.983; for `C[C@@H]1CN([C@H](C)CO)C(=O)c2cccc(NS(=O)(=O)c3ccc(F)cc3)c2O[C@H]1CN(C)Cc1ccncc1`, inactive: 1; for `C[C@H](CO)N1C[C@H](C)[C@@H](CN(C)Cc2ccccn2)Oc2ncc(C#Cc3ccc(F)cc3)cc2C1=O`, inactive: 0.996.
Regarding `C[C@@H]1CN([C@@H](C)CO)C(=O)c2cccc(NC(=O)c3nc4ccccc4s3)c2O[C@@H]1CN(C)C(=O)Nc1cccc2ccccc12`, the relative growth is inactive: 0.986.
Then `C=CCC[C@H](Cc1ccc(F)cc1)C(=O)O[C@@H](CNC(=O)[C@@H](CC=C)CC(=O)N(CCO)Cc1ccccc1)c1ccccc1`, with inactive: 1.07; and `COC(=O)CNC(=O)/C=C/c1ccc(OC)cc1`, with inactive: 0.994; and `C[C@H](CO)N1C[C@H](C)[C@@H](CN(C)C(=O)Nc2cccc3ccccc23)Oc2ccc(NC(=O)Cn3cnnn3)cc2CC1=O`, with inactive: 1.01.
On to `C[C@@H]1CN([C@@H](C)CO)C(=O)c2cc(NS(=O)(=O)c3ccc(Cl)cc3)ccc2O[C@@H](C)CCCCO[C@H]1CN(C)Cc1ccc(C(F)(F)F)cc1`, for which the relative growth is inactive: 1.03.
With `COC(=O)c1c2oc(c1C(=O)OC)C(=O)N[C@@H](Cc1ccccc1)Cn1cc(nn1)[C@H](Cc1ccccc1)NC(=O)N[C@@H](CO)CC2`, the relative growth was inactive: 0.997.
For the compound `CSc1nc2ccc(N)cc2s1`, the relative growth is inactive: 1.
For `C[C@H](CO)N1C[C@H](C)[C@H](CN(C)Cc2ccc3c(c2)OCCN3C)OCc2ccccc2-c2c(n(C)c3ccccc23)C1=O` the value was inactive: 1; for `C[C@@H]1[C@@H]([Si](C)(C)F)[C@H](CC(=O)N2Cc3ccccc3C[C@H]2CO)O[C@@]12C(=O)N(c1ccccc1)c1ccccc12`, inactive: 0.998; for `NCC1CCC(N)C(OC2C(N)CC(N)C(OC3OC(CO)C(O)C(N)C3O)C2O)O1` (stereo unspecified), inactive: 0.947.
On to `c1ccc(-c2nc3ccccc3o2)nc1`, for which the relative growth was inactive: 0.99.
Regarding `CC(=O)Oc1c(C)cccc1C(=O)O`, the relative growth is inactive: 0.96.
Then `C[C@@H]1CN([C@@H](C)CO)C(=O)c2cc(NS(=O)(=O)c3cn(C)cn3)ccc2O[C@@H](C)CCCCO[C@H]1CN(C)S(=O)(=O)c1cn(C)cn1`, with inactive: 0.979; and `COC[C@H]1C[C@H](c2ccc(NC(=O)CCCCCCC(=O)NO)cc2)O[C@H](c2ccc([C@H]3O[C@@H](COC)C[C@H](c4ccc(NC(=O)CCCCCCC(=O)NO)cc4)O3)cc2)O1`, with inactive: 0.983.
For `O=C(O)[C@H]1CCCC[C@H]1C(=O)N1CCc2ccccc2[C@H]1CNS(=O)(=O)c1ccc([N+](=O)[O-])cc1` the value was inactive: 1.02.
Then `C[C@H](CO)N1C[C@H](C)[C@@H](CN(C)CC2CCCCC2)Oc2ccc(NC(=O)Nc3ccc(C(F)(F)F)cc3)cc2C1=O`, with inactive: 0.977.
Consider `COCC(=O)N(C)C[C@H]1Oc2cc(C#C[C@@H](C)O)ccc2S(=O)(=O)N([C@H](C)CO)C[C@@H]1C`, for which the relative growth is inactive: 0.996.
Then `COc1ccc(S(=O)(=O)Nc2ccc3c(c2)C(=O)N([C@H](C)CO)C[C@H](C)[C@@H](CN(C)S(C)(=O)=O)OCCCC[C@H](C)O3)cc1`, with inactive: 1.02; and `C[C@@H]1CCCCO[C@H](CN(C)C(=O)Nc2ccc(C(F)(F)F)cc2)[C@H](C)CN([C@@H](C)CO)C(=O)c2cc(NS(=O)(=O)c3ccccc3)ccc2O1`, with inactive: 1.01; and `C[C@@H]1CCCCO[C@@H](CN(C)S(=O)(=O)c2cccs2)[C@@H](C)CN([C@H](C)CO)C(=O)c2cc(NC(=O)Nc3ccc4c(c3)OCO4)ccc2O1`, with inactive: 1.02.
Then `C[C@@H]1CN([C@H](C)CO)C(=O)c2cccc(NC(=O)c3nc4ccccc4s3)c2O[C@H]1CN(C)C(=O)Nc1cccc2ccccc12`, with inactive: 1.01; and `C[C@H]1CN([C@@H](C)CO)C(=O)c2cccc(NC(=O)Nc3cccc4ccccc34)c2O[C@H]1CN(C)Cc1ccc(C(F)(F)F)cc1`, with inactive: 1.04.
For `C[C@H](CO)N1C[C@H](C)[C@H](CN(C)Cc2cccc(C(F)(F)F)c2)OCc2ccccc2-c2c(n(C)c3ccccc23)C1=O` the value was inactive: 1.03.
Take `Cc1ccc(S(=O)(=O)Nc2ccc3c(c2)C(=O)N([C@@H](C)CO)C[C@H](C)[C@@H](CN(C)S(=O)(=O)c2ccc(F)cc2)OCCCC[C@H](C)O3)cc1`: the relative growth is inactive: 1.02.
For `COc1ccc(S(=O)(=O)Nc2ccc3c(c2)C(=O)N([C@H](C)CO)C[C@@H](C)[C@H](CN(C)S(=O)(=O)c2cn(C)cn2)OCCCC[C@@H](C)O3)cc1` the value was inactive: 1.02.
Take `C[C@H]1CN([C@@H](C)CO)C(=O)c2cc(NS(=O)(=O)c3ccc(F)cc3)ccc2O[C@@H]1CN(C)CC1CC1`: the relative growth is inactive: 1.01.
Regarding `C[C@@H]1CCCCO[C@H](CN(C)C(=O)C2CCCCC2)[C@@H](C)CN([C@H](C)CO)C(=O)c2cc(NC(=O)NC3CCCCC3)ccc2O1`, the relative growth is inactive: 1.01.
Regarding `C[C@H](CO)N1C[C@H](C)[C@@H](CN(C)C(=O)c2cccc(F)c2)Oc2cc(-c3cccnc3)ccc2S1(=O)=O`, the relative growth is inactive: 0.997.
Then `O=S(=O)(NCC[C@@H]1CC[C@@H](NS(=O)(=O)c2cccc(Cl)c2)[C@H](CO)O1)c1cccc(F)c1`, with inactive: 1; and `C[C@@H]1CN([C@@H](C)CO)S(=O)(=O)c2ccc(C#CCN(C)C)cc2O[C@@H]1CN(C)C(=O)C1CCCCC1`, with inactive: 0.994.
